# The whole screen tested about 220,000 compounds, of which about 5,700 (2.6%) were called active. The inconclusive results got no clear call from the source; some entries with a clear call stand among them for comparison. The call rests on the fitted dose curve; in most records, active means well fitted inhibition curve with a large enough effect; inconclusive means small, poorly fitted or top-dose-only effect; inactive means no such curve, though single readings can be large or run the other way. Where the call is inconclusive, the potency comes from a doubtful curve fit.
# Target: Lysine-specific demethylase 5B (Homo sapiens) (UniProt Q9UGL1)
# Sequence of UniProt Q9UGL1 (Q9UGL1 whole entry, looked up): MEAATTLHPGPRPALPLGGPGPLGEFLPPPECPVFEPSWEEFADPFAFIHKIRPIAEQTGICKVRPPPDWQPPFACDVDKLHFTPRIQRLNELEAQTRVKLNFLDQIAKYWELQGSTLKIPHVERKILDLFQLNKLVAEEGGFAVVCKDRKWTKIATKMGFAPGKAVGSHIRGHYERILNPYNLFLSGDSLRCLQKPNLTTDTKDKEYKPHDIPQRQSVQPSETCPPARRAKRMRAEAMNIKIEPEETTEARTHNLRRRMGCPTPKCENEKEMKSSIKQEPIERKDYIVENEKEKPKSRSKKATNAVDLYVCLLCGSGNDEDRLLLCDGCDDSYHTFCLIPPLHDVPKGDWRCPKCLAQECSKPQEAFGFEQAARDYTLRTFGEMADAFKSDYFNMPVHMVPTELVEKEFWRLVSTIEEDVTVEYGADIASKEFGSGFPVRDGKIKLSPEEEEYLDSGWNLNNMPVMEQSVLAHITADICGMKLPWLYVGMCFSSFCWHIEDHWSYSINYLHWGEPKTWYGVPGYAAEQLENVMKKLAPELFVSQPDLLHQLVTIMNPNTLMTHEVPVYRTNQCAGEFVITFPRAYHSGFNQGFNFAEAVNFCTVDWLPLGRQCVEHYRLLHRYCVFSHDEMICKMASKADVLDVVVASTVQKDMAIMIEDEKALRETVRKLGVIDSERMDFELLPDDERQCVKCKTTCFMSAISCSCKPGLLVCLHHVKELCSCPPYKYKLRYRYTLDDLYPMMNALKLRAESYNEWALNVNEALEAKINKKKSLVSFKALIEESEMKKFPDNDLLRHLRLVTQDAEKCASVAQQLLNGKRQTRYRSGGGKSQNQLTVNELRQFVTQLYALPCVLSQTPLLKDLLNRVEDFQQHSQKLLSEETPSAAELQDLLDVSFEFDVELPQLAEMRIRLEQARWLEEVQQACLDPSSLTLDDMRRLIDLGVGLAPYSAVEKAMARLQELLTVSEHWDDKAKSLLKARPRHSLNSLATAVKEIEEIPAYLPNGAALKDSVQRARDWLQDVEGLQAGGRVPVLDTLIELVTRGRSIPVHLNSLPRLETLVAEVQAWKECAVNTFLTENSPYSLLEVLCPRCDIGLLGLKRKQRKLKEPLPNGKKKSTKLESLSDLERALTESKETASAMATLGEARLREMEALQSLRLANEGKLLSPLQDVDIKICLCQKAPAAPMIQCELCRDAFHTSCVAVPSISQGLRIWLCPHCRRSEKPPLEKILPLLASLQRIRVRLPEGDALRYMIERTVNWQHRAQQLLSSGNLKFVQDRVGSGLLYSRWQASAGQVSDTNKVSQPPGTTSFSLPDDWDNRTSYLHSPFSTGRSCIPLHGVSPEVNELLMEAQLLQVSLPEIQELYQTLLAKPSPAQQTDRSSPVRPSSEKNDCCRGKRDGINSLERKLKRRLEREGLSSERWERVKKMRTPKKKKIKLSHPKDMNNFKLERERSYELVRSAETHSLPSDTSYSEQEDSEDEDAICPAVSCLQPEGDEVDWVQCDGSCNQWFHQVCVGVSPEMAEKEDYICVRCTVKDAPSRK
# Assay: Primary screen for KDM5B Histone Demethylases FDH-coupled qHTS; further: nearly all actives have a fitted effect of over 70% in size; on activity change, negative = inhibition: 0% is about no effect
# Conditions: FDH-coupled NADH fluorescence (FDH is formaldehyde dehydrogenase); activity change, negative = inhibition: at 57.7 µM (top of the series) unless noted
# Method in brief: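 Measured: NADH fluorescence change, 30 min, RT. System: KDM5BΔAP 200 nM final, H3K4me3 peptide, α-KG, Fe(II), ascorbate, NAD⁺ plus FDH, pH 7.5 HEPES. Compounds: titrated, 10 min pre-incubation with enzyme.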
# Potency means the concentration at half of the fitted maximal effect; tags describe the fitted curve by direction and shape.
SMILES,Potency,"activity change, negative = inhibition"
COc1cc(C(=O)Nc2ccc(-c3nc4cc(C)c(C)cc4o3)cc2)cc(OC)c1OC,"inconclusive: 28.2 µM [inhibitor, single point]",
COc1ccc(C2Cn3nnc(C(=O)Nc4cc(C)ccc4F)c3CO2)cc1 (stereo not given),inactive,
CCOC(=O)c1c(-c2ccc(OC)cc2)oc2cc(Br)c(O)cc12,"inconclusive: 10 µM [inhibitor, partial curve, poor fit]",
CCc1ccc(NC(=O)N2CCc3c(nc4cc(-c5ccc(OC)cc5)[nH]n4c3=O)C2)cc1,"inconclusive: 31.6 µM [inhibitor, partial curve, poor fit]",
CC(=O)N(c1nc(COc2ccccc2C(N)=O)cs1)c1ccc(C)cc1C,inactive,
CCOC(=O)c1ccc(NC(=O)CCc2c(C)nc3cc(-c4ccc(OC)cc4OC)nn3c2C)cc1,"inconclusive: 6.31 µM [inhibitor, partial curve, poor fit]",
Cc1nc([C@@H]2CN(C(=O)c3cc(C4CC4)[nH]n3)C[C@H]2C(N)=O)n[nH]1,inactive,
COc1ccc2[nH]c(C(=O)Nc3ccc4c(c3)OCO4)cc2c1,"inconclusive: 35.5 µM [inhibitor, partial curve, poor fit]",
O=C(CC1CCCC1)Nc1nc(-c2ccc3c(c2)CCO3)cs1,inactive,
O=C(Nc1ccc(F)cc1)C1CC(=O)N(c2n[nH]c3cccc(F)c23)C1 (stereo not given),"inconclusive: 35.5 µM [inhibitor, partial curve, poor fit]",
N#Cc1cccnc1N1CCC(C(N)=O)CC1,"inconclusive: 22.4 µM [inhibitor, partial curve, poor fit]",
CN(C)c1ccc(-c2noc([C@@H]3CCCN3Cc3cnc4ccccc4c3)n2)cn1,active: 28.2 µM,
O=C1C(Nc2ccc3c(c2)OCCO3)=CC(c2ccccc2)N1c1ccc2c(c1)OCCO2 (stereo not given),"inconclusive: 22.4 µM [inhibitor, partial curve, poor fit]",
COc1cncc(Nc2ncc(-c3ccccc3)c3c2OCC3)c1,"inconclusive: 39.8 µM [inhibitor, partial curve, poor fit]",
Cc1ccccc1NC(=O)c1cnc2c(c1)N(C(=O)CCc1ccccc1)CCC2,inactive,
COc1ccc(NC(=O)CSc2nncn3c2cc2occc23)c(OC)c1,"inconclusive: 28.2 µM [inhibitor, single point]",
CC(C)(C)c1cc(CNC(=O)CC2C(=O)NCCN2CC2CCCCC2)[nH]n1 (stereo not given),"inconclusive: 20 µM [inhibitor, partial curve, poor fit]",
Cc1ccccc1NC(=O)CC1C(=O)Nc2nc(-c3ccccc3)nn21 (stereo not given),inactive,
Cc1ccc(CNC(=O)C(=O)c2cn(CC(=O)N3CCCC3)c3ccccc23)cc1,"inconclusive: 39.8 µM [inhibitor, single point]",
COc1ccc(CCN2C(=O)c3ccccc3NC2c2cc(Cl)c(O)c(OC)c2)cc1 (stereo not given),"inconclusive: 28.2 µM [inhibitor, partial curve, poor fit]",

SMILES,Potency,"activity change, negative = inhibition"
O=C(Cn1ccn2nc(-c3ccccc3)c(CO)c2c1=O)NCCc1ccccc1,"inconclusive: 39.8 µM [inhibitor, partial curve, poor fit]",
CC1(C(=O)NCc2cnccn2)CCc2cnc(NCc3ccccc3)nc21 (stereo not given),"inconclusive: 35.5 µM [inhibitor, single point]",
Cc1ccc(N2CCN(C(=O)c3cn(C)c4ccc(S(=O)(=O)N5CCC(C)CC5)cc4c3=O)CC2C)cc1 (stereo not given),"inconclusive: 11.2 µM [inhibitor, partial curve, poor fit]",
COc1ccccc1NC(=O)c1ccc(NC(=O)c2ccccc2SCC2CCCO2)cc1 (stereo not given),"inconclusive: 39.8 µM [inhibitor, single point]",
CCN(C(=O)CSc1nc(-c2ccc(C(C)C)cc2)no1)c1ccccc1,,inconclusive: -33.9% [inhibitor]
CCN(CC)C(=O)Cn1cc(C(=O)N2CCN(c3nc4ccccc4s3)CC2)nn1,"inconclusive: 6.31 µM [inhibitor, single point]",
Cc1ccc2oc(=O)c3cc(C(=O)N4CCN(C)CC4)sc3c2c1,"inconclusive: 31.6 µM [inhibitor, partial curve, poor fit]",
O=C1OC2(CN(c3ccc4c(c3)OCO4)C2)CN1c1ccccc1,"inconclusive: 25.1 µM [inhibitor, partial curve, poor fit]",
Cc1ccc(COC(=O)c2ccccc2Nc2ccccc2)cc1,inactive,
C[S+](=O)([O-])CCn1ncc2cc(OCc3cccc(-c4ccccc4F)c3)ccc21,"inconclusive: 35.5 µM [inhibitor, partial curve, poor fit]",
CCC(C)NC(=O)C1=Cc2sc3c(c2CS1)CCCC3 (stereo not given),"inconclusive: 35.5 µM [inhibitor, single point]",
Cc1c(O)ccc2c(CN(C)CCO)cc(=O)oc12,"inconclusive: 39.8 µM [inhibitor, single point]",
O=[N+]([O-])c1cccc(-c2ncc[nH]2)c1,"inconclusive: 141 µM [inhibitor, partial curve]",
CC(C)(C)c1cc(/C=C/C(=O)O)cc(C(C)(C)C)c1O,"inconclusive: 25.1 µM [inhibitor, partial curve, poor fit]",
Cc1ccc(S(=O)(=O)N2CCN(C(=O)Cc3ccc(-c4ccccc4)cc3)CC2)cc1,"inconclusive: 35.5 µM [inhibitor, partial curve, poor fit]",
CCN(CC)C(=O)c1ccc2oc(CN3CCN(C(=O)Nc4ccc(C)c(F)c4)CC3)nc2c1,inactive,
COc1ccc(NC(=O)Cn2c(=O)n(Cc3ccco3)c(=O)c3sc4ccccc4c32)cc1OC,"inconclusive: 17.8 µM [inhibitor, partial curve, poor fit]",
CC(=O)N1C[C@@H](CN(C)C)[C@H](NC(=O)c2ccccc2OC(F)(F)F)C1,inactive,
CC(=O)c1ccc(NC(=O)c2cnc(N3CCCC3)nc2C)cc1,"inconclusive: 2.24 µM [inhibitor, partial curve, poor fit]",
CCOc1cc(C#N)c(NC(=O)c2ccc(OC)c(S(=O)(=O)N3CCCCC3)c2)cc1OCC,"inconclusive: 15.8 µM [inhibitor, partial curve, poor fit]",

# — PubChem BioAssay AID1347165 (National Center for Advancing Translational Sciences (NCATS), 2019)
